Drawing on the RNAGym collection of RNA variant scans (doi:10.1093/nar/gkz1192), this text covers self-cleavage for 84 variants.

The source gives no read counts; variants with many changes may rest on few reads.

B1: CPEB3 Ribozyme (parent)
chain: UAACAGGGGGCCACAGCAGAAGCGUUCACGUCGCAGCCCCUGUCAGAUUCUGGUGAAUCUGCGAAUUCUGCUGUAUAUCUC

In this data set the parent is B1. Nature of the data set: self-cleavage, relative activity (ratio to wild type); higher = more cleavage; in vitro, sequencing. The method, boiled down:
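For each CPEB3 ribozyme variant, relative activity is its cleaved/total read fraction divided by the unmutated ribozyme's. Barcoded error-prone PCR libraries were transcribed by T7 RNA polymerase (5 hours, 37°C) and held in DNase I for 15 min before an EDTA stop, with cleavage occurring throughout. Template-switching reverse transcription and Illumina sequencing were used to read the RNAs. A 5-read minimum applied, and results are the mean of three batches.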
Regarding C12U A13G U25C A28G U76A, the self-cleavage came out at 0.06. Next, A13G C14U A20G U26A C37U: 0.23; A13G A28G A57G U69A G70A: 0.19; A13G A35U U51G: 0.62. With A13G A15G A56U U80C the figure was 0.51; with C12U A15C A65G, 0.6. Take C12A U31C C38A U72C U80C: the self-cleavage turned out to be 0.24. Consider A13G C23G U41C U51A U54G A56U, for which the self-cleavage amounted to 0.06. Next, A13G A28U U74C: 0.37; C12U A20G U72C: 1.18; A13G A20U C68A: 0.18.

For A13G A18U A45U, the self-cleavage was determined as 0.23. For C12A U54C C79A, the self-cleavage worked out at 1.22. Consider A13C A47G A75G, for which the self-cleavage is 0.89. With A13G A21G A35U the figure was 0.17. For C11U U60C A77C, the self-cleavage was determined as 0.1. For A13G A15U A45G C59U U78C, the self-cleavage was 0.24. Next, A13G A35U U69C: 0.14. As to C12U A45G U60C, the self-cleavage came to 1.24. For the variant C12U A75G U80C, the self-cleavage turned out to be 1.29. For the variant C12G U54A U78C, the self-cleavage came out at 0.36. Next, C12U A15G A18U U58C: 0.2. For C12A A18U U31C G55U, the self-cleavage is 0.14. Next, C12A A13C U26A A35U A45U G55A: 0.48.

As to C12U A13U A28U U58C A77U, the self-cleavage is 0.49. Consider A13C A21G A64U A65G, for which the self-cleavage is 0.08. Regarding A13G A64U U69A, the self-cleavage turned out to be 0.15. With A13G A20G U51A the figure was 0.63; with C12A A15U U66C U76C, 0.3. C12A A28G U66A: the self-cleavage is 0.17. With C12G A13U U60A A64G the figure was 0.31. With C12A U41A U67C the figure was 0.09; with A13G A57G U60A U69A U80C, 0.23. In the case of A13G A18U A45U A64U, the self-cleavage was found to be 0.11. With C12A A13U A18U U54C the figure was 0.47; with A13G A15G A20U U26C A28U A56G, 0.38. With A13G A64U U72A U76C the figure was 0.13. For C12A C62G G73A U76C, the self-cleavage amounted to 0.3. Consider A13C U25C A64G U76C, for which the self-cleavage was determined as 0.09.

Take C12U A15U U67A: the self-cleavage came out at 0.56. Next, C12U A20G C40U: 1.08; A13C G19A G30A A45G A57G U60C: 0.07; C12A A35U U43C U80A: 1.24.

Turning to A13G A28G A64G, the self-cleavage is 0.34. In the case of A13C U31A U60C U74G A75U, the self-cleavage stood at 0.25. In the case of A13G A15G C37A U41C A47G U54C, the self-cleavage worked out at 0.04.

Regarding A13G A18G U25C U60C C71A U72C, the self-cleavage was determined as 0.2. With A13C A21G C38U U58C U74C U80C the figure was 0.08. Next, A13G A28G A47G U60A: 0.36; C12U U41A U51A U54C U60A U72C: 0.19. On to C11U U54A U69A, for which the self-cleavage came to 0.14. Take C12U A21G A56G U72C: the self-cleavage was 0.75. With A13C G24A C34U U69C U78C the figure was 0.19; with C12U A18G G30A A47U U48G U72A, 0.04; with C12U U31C A35G U48C A65C U72A, 0.12. With C12A C14A U41A C59A A75U the figure was 0.18. With A13G A21G U72A the figure was 0.36; with C12U A18U U41C U66G U78C U80C, 0.22. On to C11U U67A U72A U74C U78C, for which the self-cleavage turned out to be 0.12. For A13G A21U U31C U41A U78C C79U, the self-cleavage stood at 0.05. Next, C12U A13U A21G U26C A56U A57G U67C: 0.05; C12U U41C U66G A77U: 1.09; A13C U26G U69C: 0.06. C12U C50A U74A: the self-cleavage came out at 1.29. On to A13G A15G U41G U49C A56U, for which the self-cleavage came out at 0.3. With C12A G24A A35G U60C the figure was 0.18.

With A13C A56U A77U, the self-cleavage worked out at 0.46. In the case of A13G A15U C17U U41C G46U, the self-cleavage was 0.25.

For A13G C23U C34U, the self-cleavage came out at 0.17.

A13G A18U U25C U72A: the self-cleavage was 0.22. For the variant A13G A15U A47G U60A, the self-cleavage came out at 0.09. For C12A C39A A56G U80C, the self-cleavage worked out at 0.37. As to A13G A15G U25C U51C U78A, the self-cleavage turned out to be 0.02. Next, A13G A20G A28G C37A U60C: 0.18. Next, A13G A15G A18G U49C U60A: 0.15; A13C G24A U26A A56G U66C: 0.07; A13G A35G U76C: 0.81. For A13G A15U A28G, the self-cleavage was determined as 0.17. With A13G A15G G30A U41A A56G, the self-cleavage turned out to be 0.45. For A13C A21G U25C, the self-cleavage is 0.32. Next, C12U A15U U43A U51C U60A U72C: 0.21. Next, A13G A47G A56G A65G U80C: 0.05; A13G A15G A56G U60C C71U U80C: 0.02; A13G A47G U51A A56U U72C U76C: 0.15.
